One test has as its target T1, human OX40 on cells (human, UniProt P43489 29-277).
T1 sequence (looked up): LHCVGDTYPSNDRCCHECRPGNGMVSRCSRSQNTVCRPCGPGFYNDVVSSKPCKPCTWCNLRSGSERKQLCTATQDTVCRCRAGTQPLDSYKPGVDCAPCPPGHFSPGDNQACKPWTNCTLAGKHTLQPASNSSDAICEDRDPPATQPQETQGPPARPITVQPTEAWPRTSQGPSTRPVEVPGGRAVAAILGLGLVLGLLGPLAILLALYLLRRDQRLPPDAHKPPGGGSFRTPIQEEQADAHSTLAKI
As to the kind of experiment: cell-based or functional assay.

The target in the next test is rat OX40-Fc (rat). As to the kind of experiment: SPR, dAb-Fc immobilised on CM5, OX40-Fc injected. Background: In SPR one partner is held on a chip, and binding of the other changes the refractive index at the surface.
The next test addresses T2, human OX40-Fc (human).
T2 construct: also called recombinant human OX40-Fc; human OX40 (HHHH)
Kind of test: SPR, dAb-Fc immobilised on CM5, OX40-Fc 200 nM injected.

A further test addresses T3, OX40-CRD-Avi-his (human).
T3 construct: limits of the construct not described
T3 chain: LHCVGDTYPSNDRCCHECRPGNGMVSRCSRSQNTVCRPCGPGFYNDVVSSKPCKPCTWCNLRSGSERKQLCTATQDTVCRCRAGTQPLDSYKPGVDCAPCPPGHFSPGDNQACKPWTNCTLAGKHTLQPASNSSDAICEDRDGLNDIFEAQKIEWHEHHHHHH
Kind of test: SPR, Fc-2H6 fragment captured by anti-human IgG Fc, OX40-CRD-Avi-his injected, 1:1 Langmuir. As to the method:
The antibody/protease mixture was incubated over night at 37° C. […] After each binding event, the surface was regenerated with 10 μl of MgCl2 (3M) buffer. Experimental data were processed using a 1:1 Langmuir model with local Rmax. The dissociation time was about 7 min.

The next test has as its target T4, chiOX40R HHRH-Fc (human/rat chimera; human).
T4 construct: also called chiOX40R-Fc HHRH; chiOX40R OX40 HHRH-Fc
Kind of test: SPR, chiOX40R-Fc HHRH on the chip (Fc2-1), analyte 200 nM. As to the method: (§1) A second injection was then performed using HBS-EP buffer for 3 min followed by 5 min of dissociation. Regeneration between the injections was done using glycine pH1.5 buffer for 1 min (FIG. 21 and table 23).

For the next test, the target named is T5, chiOX40R RRHH-Fc (human/rat chimera; human).
T5 construct: also called chiOX40R-Fc RRHH
Kind of test: SPR, chimera immobilised (3000 RU), fragment injected at 200 nM. As to the method:
as §1

Test [1] addresses T6, cynomolgus monkey OX40R-Fc (cynomolgus monkey).
T6 construct: also called recombinant Fc fused cynomolgus monkey OX40 receptor extracellular domain; cyno OX40-Fc
Kind of test: SPR (BIAcore T200), cynomolgus OX40R-Fc on CM5 chip, scFv-Fc injected, bivalent analyte model.

The target of test [2] is T7, recombinant human OX40-his protein (human, UniProt P43489 29-214).
T7 construct: Secreted via the native signal peptide, which lies within residues 1-214; also called Human OX40R-His; histidine tagged human OX40 receptor extracellular domain
T7 sequence: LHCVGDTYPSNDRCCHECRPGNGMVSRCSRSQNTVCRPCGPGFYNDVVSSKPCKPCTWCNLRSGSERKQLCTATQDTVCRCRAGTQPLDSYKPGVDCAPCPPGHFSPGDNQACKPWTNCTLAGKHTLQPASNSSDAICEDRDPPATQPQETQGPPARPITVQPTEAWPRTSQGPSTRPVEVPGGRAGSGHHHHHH
Kind of test: SPR (value of Table 12 repeated).

Test [3] addresses T7, recombinant human OX40-his protein. As to the kind of experiment: SPR (BIAcore T200), human OX40R-His on CM5 chip, scFv-Fc injected, bivalent analyte model.
For test [4] the target is unchanged. Kind of test: SPR, analyte at 200 nM over human OX40R on a CM5 chip, 25 C.

One may read the koff as the first-order rate constant of dissociation. The kon is the second-order rate constant of association.

Chain of rat OX40-Fc (chain, as listed by the source limits assumed): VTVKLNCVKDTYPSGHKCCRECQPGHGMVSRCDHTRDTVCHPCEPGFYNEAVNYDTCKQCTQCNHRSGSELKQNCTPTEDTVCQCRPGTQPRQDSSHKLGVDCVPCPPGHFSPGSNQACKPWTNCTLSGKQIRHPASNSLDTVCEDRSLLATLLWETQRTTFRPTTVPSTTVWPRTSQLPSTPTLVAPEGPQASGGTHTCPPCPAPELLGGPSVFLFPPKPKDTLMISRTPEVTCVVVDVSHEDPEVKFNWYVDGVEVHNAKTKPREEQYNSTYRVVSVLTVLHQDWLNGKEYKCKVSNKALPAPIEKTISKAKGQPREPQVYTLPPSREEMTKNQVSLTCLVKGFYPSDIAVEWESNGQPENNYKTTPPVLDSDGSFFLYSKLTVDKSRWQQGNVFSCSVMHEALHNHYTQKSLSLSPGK
Chain of chiOX40R RRHH-Fc (chain, as listed by the source): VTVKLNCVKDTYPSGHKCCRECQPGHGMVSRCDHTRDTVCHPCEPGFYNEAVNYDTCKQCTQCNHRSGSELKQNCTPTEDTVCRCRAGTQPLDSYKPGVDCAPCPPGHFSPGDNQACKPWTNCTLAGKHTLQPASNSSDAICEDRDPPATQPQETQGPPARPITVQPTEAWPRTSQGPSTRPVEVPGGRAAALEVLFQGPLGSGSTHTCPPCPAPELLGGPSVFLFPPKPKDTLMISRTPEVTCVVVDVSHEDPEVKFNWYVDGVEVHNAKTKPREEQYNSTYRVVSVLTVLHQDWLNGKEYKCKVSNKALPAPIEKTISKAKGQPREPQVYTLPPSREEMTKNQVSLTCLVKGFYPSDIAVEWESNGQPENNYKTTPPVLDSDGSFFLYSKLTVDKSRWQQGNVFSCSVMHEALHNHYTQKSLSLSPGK

B1: Hexa-hz1D10v1 (Fc fusion)
chain: EVQLLESGGGEVQPGGSLRLSCAASGFTFSDAFMYWVRQAPGKGLEWVSSISNRGLKTAYAESVKGRFTISRDNAKNTLYLQMSSLRAEDTAVYYCSRDVDGDFRGQGTLVTVKPGGSGGSEVQLLESGGGEVQPGGSLRLSCAASGFTFSDAFMYWVRQAPGKGLEWVSSISNRGLKTAYAESVKGRFTISRDNAKNTLYLQMSSLRAEDTAVYYCSRDVDGDFRGQGTLVTVKPGGSGGSEVQLLESGGGEVQPGGSLRLSCAASGFTFSDAFMYWVRQAPGKGLEWVSSISNRGLKTAYAESVKGRFTISRDNAKNTLYLQMSSLRAEDTAVYYCSRDVDGDFRGQGTLVTVKPGGGGTGGGGT[sequence of human IgG1 Fc with changes omitted]
Take B1: in the test with human OX40 on cells, the “% donor responder (>2), SEB assay, IL-2 release” value (shortened to “% donor responder”) is 0% and the “Mean, normalized IL-2 release, SEB assay” value came to 1.14.

B2: Hexa-hzG3V9 (Fc fusion)
chain: EVQLLESGGGEVQPGGSLRLSCAASGFTFSDAFMYWVRQAPGKEREWVSSISNRGLKTAYAESVKGRFTISRDNAKNTLYLQMSSLRAEDTAVYYCVEGDWNLGPRGQGTLVTVKPGGSGGSEVQLLESGGGEVQPGGSLRLSCAASGFTFSDAFMYWVRQAPGKEREWVSSISNRGLKTAYAESVKGRFTISRDNAKNTLYLQMSSLRAEDTAVYYCVEGDWNLGPRGQGTLVTVKPGGSGGSEVQLLESGGGEVQPGGSLRLSCAASGFTFSDAFMYWVRQAPGKEREWVSSISNRGLKTAYAESVKGRFTISRDNAKNTLYLQMSSLRAEDTAVYYCVEGDWNLGPRGQGTLVTVKPGGGGTGGGGT[sequence of human IgG1 Fc with changes omitted]
For the molecule B2, in the test with human OX40 on cells, the “% donor responder” value came to 33% and the “Mean, normalized IL-2 release, SEB assay” value turned out to be 1.82.

B3: 11D4_hzG3v9 (bispecific antibody)
heavy: EVQLVESGGGLVQPGGSLRLSCAASGFTFSSYSMNWVRQAPGKGLEWVSYISSSSSTIDYADSVKGRFTISRDNAKNSLYLQMNSLRDEDTAVYYCARESGWYLFDYWGQGTLVTVSSASTKGPSVFPLAPSSKSTSGGTAALGCLVKDYFPEPVTVSWNSGALTSGVHTFPAVLQSSGLYSLSSVVTVPSSSLGTQTYICNVNHKPSNTKVDKKV[sequence of human IgG1 Fc with changes omitted]GGGGTEVQLLESGGGEVQPGGSLRLSCAASGFTFSDAFMYWVRQAPGKEREWVSSISNRGLKTAYAESVKGRFTISRDNAKNTLYLQMSSLRAEDTAVYYCVEGDWNLGPRGQGTLVTVKP
light: [sequence of about 200 residues omitted]
As for B3, in the test with human OX40 on cells, the “% donor responder” value came to 100% and the “Mean, normalized IL-2 release, SEB assay” value worked out at 22.6.

B4: Tetra-hz1D10v1 (Fc fusion)
chain: EVQLLESGGGEVQPGGSLRLSCAASGFTFSDAFMYWVRQAPGKGLEWVSSISNRGLKTAYAESVKGRFTISRDNAKNTLYLQMSSLRAEDTAVYYCSRDVDGDFRGQGTLVTVKPGGSGGSEVQLLESGGGEVQPGGSLRLSCAASGFTFSDAFMYWVRQAPGKGLEWVSSISNRGLKTAYAESVKGRFTISRDNAKNTLYLQMSSLRAEDTAVYYCSRDVDGDFRGQGTLVTVKPGGGGT[sequence of human IgG1 Fc with changes omitted]
notes: dAb-Fc (IgG1 Fc LALA) fusion; also called 1D10v1 dAb
For B4, the binding result with rat OX40-Fc is reported as “no binding (tested: 200 nM)”. For the same molecule, in the test with human OX40 on cells, the “% donor responder” value turned out to be 50% and the “Mean, normalized IL-2 release, SEB assay” value was found to be 1.89. For the same molecule, the binding result with human OX40-Fc is recorded as “binds”.

B5: Tetra-hzG3V9 (Fc fusion)
chain: EVQLLESGGGEVQPGGSLRLSCAASGFTFSDAFMYWVRQAPGKEREWVSSISNRGLKTAYAESVKGRFTISRDNAKNTLYLQMSSLRAEDTAVYYCVEGDWNLGPRGQGTLVTVKPGGSGGSEVQLLESGGGEVQPGGSLRLSCAASGFTFSDAFMYWVRQAPGKEREWVSSISNRGLKTAYAESVKGRFTISRDNAKNTLYLQMSSLRAEDTAVYYCVEGDWNLGPRGQGTLVTVKPGGGGT[sequence of human IgG1 Fc with changes omitted]
notes: dAb-Fc (IgG1 Fc LALA) fusion; also called hzG3V9 dAb
On to B5, for which the binding result in the test with rat OX40-Fc is “no binding (tested: 200 nM)”; with human OX40-Fc, “binds”. Further, in the test with human OX40 on cells, the “% donor responder” value turned out to be 50%. Also, in the test with human OX40 on cells, the “Mean, normalized IL-2 release, SEB assay” value is 1.93.

B6: Fc-2H6 scFv fragment of Tetra-8 (Fc fusion)
chain: [sequence of human IgG1 Fc with changes omitted]GGGGTEVQLVESGGGLVQPGGSLRLSCAVSGYSITSDYAWNWIRQAPGKCLEWMGYISYSGSTAYNPSLKSRITISRDTSKNTFYLQMNSLRAEDTAVYYCARGPYNYLAYWGQGTLVTVSSGGGGSGGGGSGGGGSDIQLTQSPSSLSASVGDRVTITCRASESVDNYGISFMNWFQQKPGKAPKLLIYAASNQKSGVPSRFSGSGSGTDFTLTISSLQPEDFATYFCQQSKEVPLTFGCGTKVEIL
notes: also called Fc-2H6 fragment; 2H6 scFv (VH/M108L-VL/K107L-disulfide engineered) fused in C-terminus of Tetra-8
In the test with OX40-CRD-Avi-his, B6 gave a Kd of 60 nM.

B7: Fc-2H6 Fab/2H6 Fab (other)
heavy: [sequence of human IgG1 Fc with changes omitted]GGGGTEVQLVESGGGLVQPGGSLRLSCAVSGYSITSDYAWNWIRQAPGKGLEWMGYISYSGSTAYNPSLKSRITISRDTSKNTFYLQMNSLRAEDTAVYYCARGPYNYLAYWGQGTLVTVSSASTKGPSVFPLAPSSKSTSGGTAALGCLVKDYFPEPVTVSWNSGALTSGVHTFPAVLQSSGLYSLSSVVTVPSSSLGTQTYICNVNHKPSNTKVDKKVEPKSC
light: DIQLTQSPSSLSASVGDRVTITCRASESVDNYGISFMNWFQQKPGKAPKLLIYAASNQKSGVPSRFSGSGSGTDFTLTISSLQPEDFATYFCQQSKEVPLTFGQGTKVEIKRTVAAPSVFIFPPSDEQLKSGTASVVCLLNNFYPREAKVQWKVDNALQSGNSQESVTEQDSKDSTYSLSSTLTLSKADYEKHKVYACEVTHQGLSSPVTKSFNRGEC
notes: N-terminal Fabs removed by digestion; also called purified digestion product of Tetra-18
On to B7, for which the binding result in the test with chiOX40R HHRH-Fc is listed as “no binding (tested: 200 nM)”. The molecule further yielded a response units in the test with chiOX40R RRHH-Fc of 450 RU.

B8: humanized 2H6 scFv1-Fc (Fc fusion)
scFv-Fc: EVQLVESGGGLVQPGGSLRLSCAVSGYSITSDYAWNWIRQAPGKGLEWMGYISYSGSTAYNPSLKSRITISRDTSKNTFYLQMNSLRAEDTAVYYCARGPYNYLAYWGQGTMVTVSSGGGGSGGGGSGGGGSDIQLTQSPSSLSASVGDRVTITCRASESVDNYGISFMNWFQQKPGKAPKLLIYAASNQKSGVPSRFSGSGSGTDFTLTISSLQPEDFATYFCQQSKEVPLTFGQGTKVEIKGGGGT[sequence of human IgG1 Fc omitted]
notes: also called 2H6 scFv-Fc; 2H6 (N-ter)
In test [1], B8 had a Kd of 18 nM, a koff of 0.000586 s⁻¹ and a kon of 206000 M⁻¹ s⁻¹. Further, the Kd in test [2] is 27 nM. For the same molecule, in test [3], the Kd is 27 nM, the dissociation rate constant (koff) is 0.000741 s⁻¹ and the kon was determined as 155000 M⁻¹ s⁻¹.

B9: humanized 2H6 scFv2-Fc (2H6 M108L scFv-Fc) (Fc fusion)
scFv-Fc: EVQLVESGGGLVQPGGSLRLSCAVSGYSITSDYAWNWIRQAPGKGLEWMGYISYSGSTAYNPSLKSRITISRDTSKNTFYLQMNSLRAEDTAVYYCARGPYNYLAYWGQGTLVTVSSGGGGSGGGGSGGGGSDIQLTQSPSSLSASVGDRVTITCRASESVDNYGISFMNWFQQKPGKAPKLLIYAASNQKSGVPSRFSGSGSGTDFTLTISSLQPEDFATYFCQQSKEVPLTFGQGTKVEIKGGGGT[sequence of human IgG1 Fc omitted]
notes: also called 2H6 scFv M108L
Take B9: in [4], the binding result is on record as “binds”.

B10: mouse chimeric 2H6 scFv-Fc (Fc fusion)
scFv-Fc: DVQLQESGPGLVKPSQSLSLTCTVTGYSITSDYAWNWIRQFPGNKLEWMGYISYSGSTAYNPSLKSRISITRDTSKNQFFLQLNSVTTEDTATYYCARGPYNYLAYWGQGTLVTVSSGGGGSGGGGSGGGGSDIVLTQSPASLAVSLGQRATISCRASESVDNYGISFMNWFQQKPGQPPKLLIYAASNQKSGVPARFSGSGSGTDFSLNIHPMEEDDTAMYFCQQSKEVPLTFGAGTKLEIKGGGGT[sequence of human IgG1 Fc omitted]
notes: also called parental mouse 2H6 scFv
In test [1], B10 showed a Kd of 39 nM, a koff of 0.000319 s⁻¹ and a kon of 579000 M⁻¹ s⁻¹. In addition, in test [3], the Kd is 62 nM, the koff was 0.022 s⁻¹ and the kon was found to be 680000 M⁻¹ s⁻¹.

For the origin of these results see patent US20200347143A1 (GLENMARK PHARMACEUTICALS S A, published 2020).
